Experiments:
Experiment in all cases: cell-based or functional assay
Glucagon receptor = target: Glucagon receptor
[1] = target: FGFR/β-Klotho receptor complex
human GLP-1 receptor = human GLP-1 receptor (human, UniProt P43220)

Binder | GCGR agonist activity EC50 (luciferase reporter) (Glucagon receptor) | FGF21 activity EC50 (luciferase reporter) [1] | GLP-1R agonist activity EC50 (luciferase reporter) (human GLP-1 receptor)
C368 L10F4L10M2 (Fc fusion) HSQGTFTSDYSKYLDEQAAQDFVQWLMNTGPSSGAPPPSGGGGAGGGGAGGGGA[human IgG1 Fc with changes omitted here]GGGAGGGGAGGGGAHPIPDSSPLLQFGGQVRQRYLYTDDAQQTEAHLEIREDGTVGGAADQSPESLLQLKALKPGVIQILGVKTSRFLCQRPDGALYGSLHFDPEACSFRERLLEDGYNVYQSEAHGLPLHCPGNKSPHRDPAPRGPCRFLPLPGLPPALPEPPGILAPQPPDVGSSDPLSMVGGSQGRSPSYES | 1.25 nM | 0.74 nM | 1.3 nM
C495 L13F8L13M1 (Fc fusion) HSQGTFTSDYSKYLDEQAAQDFVQWLMNGGPSSGAPPPSGGGGSGGGGSGGGGSA[human IgG4 Fc with S228P N297A (EU numbers) omitted here]GGGGSGGGGSGGGGSAHPIPDSSPLLQFGGQVRQRYLYTDDAQQTEAHLEIREDGTVGGAADQSPESLLQLKALKPGVIQILGVKTSRFLCQRPDGALYGSLHFDPEACSFRERLLEDGYNVYQSEAHGLPLHLPGNKSPHRDPAPRGPARFLPLPGLPPALPEPPGILAPQPPDVGSSDPLSMVGGSQGRSPSYES | 1.13 nM | 0.82 nM | 1.33 nM
C495 L13F8L10M2 (Fc fusion) HSQGTFTSDYSKYLDEQAAQDFVQWLMNGGPSSGAPPPSGGGGSGGGGSGGGGSA[human IgG4 Fc with S228P N297A (EU numbers) omitted here]GGGGAGGGGAGGGGAHPIPDSSPLLQFGGQVRQRYLYTDDAQQTEAHLEIREDGTVGGAADQSPESLLQLKALKPGVIQILGVKTSRFLCQRPDGALYGSLHFDPEACSFRERLLEDGYNVYQSEAHGLPLHCPGNKSPHRDPAPRGPCRFLPLPGLPPALPEPPGILAPQPPDVGSSDPLSMVGGSQGRSPSYES | 1.21 nM | 0.71 nM | 1.3 nM
C352 L13F4L9M3 (Fc fusion) HSQGTFTSDYSKYLDEQAAQDFVQWLMNGPSSGAPPPSGGGGSGGGGSGGGGSA[human IgG1 Fc with changes omitted here]GGGSGGGGSGGGGSDSSPLLQFGGQVRQRYLYTDDAQQTEAHLEIREDGTVGGAADQSPESLLQLKALKPGVIQILGVKTSRFLCQRPDGALYGSLHFDPEACSFRELLLEDGYNVYQSEAHGLPLHCPGNKSPHRDPAPRGPCRFLPLPGLPPALPEPPGILAPQPPDVGSSDPLAMVGPSQGRSPSYAS | 1.15 nM | 1.45 nM | 1.21 nM
C382 L9F3L9M2 (Fc fusion) HSQGTFTSDYSKYLDSQAAQDFVQWLMNGGPSSGAPPPSGGGGSGGGGSGGGGS[human IgG1 Fc with changes omitted here]GGGGSGGGGSGGGGSHPIPDSSPLLQFGGQVRQRYLYTDDAQQTEAHLEIREDGTVGGAADQSPESLLQLKALKPGVIQILGVKTSRFLCQRPDGALYGSLHFDPEACSFRERLLEDGYNVYQSEAHGLPLHCPGNKSPHRDPAPRGPCRFLPLPGLPPALPEPPGILAPQPPDVGSSDPLSMVGGSQGRSPSYES | 1.35 nM | 0.81 nM | 1.18 nM
C382 L10F2L13M2 (Fc fusion) HSQGTFTSDYSKYLDSQAAQDFVQWLMNGGPSSGAPPPSGGGGAGGGGAGGGGA[human IgG1 Fc with changes omitted here]GGGSGGGGSGGGGSAHPIPDSSPLLQFGGQVRQRYLYTDDAQQTEAHLEIREDGTVGGAADQSPESLLQLKALKPGVIQILGVKTSRFLCQRPDGALYGSLHFDPEACSFRERLLEDGYNVYQSEAHGLPLHCPGNKSPHRDPAPRGPCRFLPLPGLPPALPEPPGILAPQPPDVGSSDPLSMVGGSQGRSPSYES | 1.21 nM | 0.87 nM | 1.19 nM
C382 L13F8L10M2 (Fc fusion) HSQGTFTSDYSKYLDSQAAQDFVQWLMNGGPSSGAPPPSGGGGSGGGGSGGGGSA[human IgG4 Fc with S228P N297A (EU numbers) omitted here]GGGGAGGGGAGGGGAHPIPDSSPLLQFGGQVRQRYLYTDDAQQTEAHLEIREDGTVGGAADQSPESLLQLKALKPGVIQILGVKTSRFLCQRPDGALYGSLHFDPEACSFRERLLEDGYNVYQSEAHGLPLHCPGNKSPHRDPAPRGPCRFLPLPGLPPALPEPPGILAPQPPDVGSSDPLSMVGGSQGRSPSYES | 1.33 nM | 0.91 nM | 1.21 nM
C382 L12F7L9M2 (Fc fusion) HSQGTFTSDYSKYLDSQAAQDFVQWLMNGGPSSGAPPPSGGGGAGGGGAGGGGAA[human IgG4 Fc with S228P N297A (EU numbers) omitted here]GGGGSGGGGSGGGGSHPIPDSSPLLQFGGQVRQRYLYTDDAQQTEAHLEIREDGTVGGAADQSPESLLQLKALKPGVIQILGVKTSRFLCQRPDGALYGSLHFDPEACSFRERLLEDGYNVYQSEAHGLPLHCPGNKSPHRDPAPRGPCRFLPLPGLPPALPEPPGILAPQPPDVGSSDPLSMVGGSQGRSPSYES | 1.42 nM | 0.88 nM | 1.3 nM
C382 L14F4L9M2 (Fc fusion) HSQGTFTSDYSKYLDSQAAQDFVQWLMNGGPSSGAPPPSGGGGAGGGGAGGGGAS[human IgG1 Fc with changes omitted here]GGGSGGGGSGGGGSHPIPDSSPLLQFGGQVRQRYLYTDDAQQTEAHLEIREDGTVGGAADQSPESLLQLKALKPGVIQILGVKTSRFLCQRPDGALYGSLHFDPEACSFRERLLEDGYNVYQSEAHGLPLHCPGNKSPHRDPAPRGPCRFLPLPGLPPALPEPPGILAPQPPDVGSSDPLSMVGGSQGRSPSYES | 1.22 nM | 0.76 nM | 1.25 nM
C232 L9F3L10M3 (Fc fusion) HSQGTFTSDYSKYLDSQAAQDFVQWLMNTGPSSGAPPPSGGGGSGGGGSGGGGS[human IgG1 Fc with changes omitted here]GGGGAGGGGAGGGGADSSPLLQFGGQVRQRYLYTDDAQQTEAHLEIREDGTVGGAADQSPESLLQLKALKPGVIQILGVKTSRFLCQRPDGALYGSLHFDPEACSFRELLLEDGYNVYQSEAHGLPLHCPGNKSPHRDPAPRGPCRFLPLPGLPPALPEPPGILAPQPPDVGSSDPLAMVGPSQGRSPSYAS | 1.45 nM | 0.65 nM | 1.79 nM
C266 L13F7L13M4 (Fc fusion) HSQGTFTSDYSKYLDSQAAQDFVQWLMNGPSSGAPPPSGGGGSGGGGSGGGGSA[human IgG4 Fc with S228P N297A (EU numbers) omitted here]GGGGSGGGGSGGGGSAHPIPDSSPLLQFGGQVRQRYLYTDDAQQTEAHLEIREDGTVGGAADQSPESLLQLKALKPGVIQILGVKTSRFLCQRPDGALYGSLHFDPEACSFRERLLEDGYNVYQSEAHGLPLHCPGNKSPHRDPAPRGPCRFLPLPGLPPALPEPPGILAPQPPDVGSSDPLAMVGGSQGRSPSYES | 1.34 nM | 0.69 nM | 1.37 nM
C137 L10F8L9M5 (Fc fusion) HSQGTFTSDYSKYLDSERAQDFVQWLMNTGPSSGAPPPSGGGGAGGGGAGGGGA[human IgG4 Fc with S228P N297A (EU numbers) omitted here]GGGGSGGGGSGGGGSHPIPDSSPLLQFGGQVRQRYLYTDDAQQTEAHLEIREDGTVGGAEDQSPESLLQLKALKPGVIQILGVKTSRFLCQRPDGALYGSLHFDPEACSFRERLLEDGYNVYQSEAHGLPLHCPGNKSPHRDPAPRGPCRFLPLPGLPPALPEPPGILAPQPPDVGSSDPLSMVGGSQGRSPSYES | 1.77 nM | 0.78 nM | 1.79 nM
C399 L12F4L19M8 (Fc fusion) HSQGTFTSDYSKYLDGERAQDFVQWLMNTGPSSGAPPPSGGGGAGGGGAGGGGAA[human IgG1 Fc with changes omitted here]GGGSGGGGSGGGGSGGGGSGGGGSHPIPDSSPLLQFGGQVRQRYLYTDDAQQTEAHLEIREDGTVGGAADQSPESLLQLKALKPGVIQILGVKTSRFLCQRPDGALYGSLHFDPEACSFRERLLEDGYNVYQSEAHGLPLHLPGNKSPHRDPAPRGPARFLPLPGLPPALPEPPGILAPQPPDVGSSDPLSMVGGSQGRSPSAAS | 1.82 nM | 0.96 nM | 1.89 nM
C392 L11F7L10M5 (Fc fusion) HSQGTFTSDYSKYLDEEAAQDFVQWLMNTGPSSGAPPPSGGSGGGGSGGGGSGGA[human IgG4 Fc with S228P N297A (EU numbers) omitted here]GGGGAGGGGAGGGGAHPIPDSSPLLQFGGQVRQRYLYTDDAQQTEAHLEIREDGTVGGAEDQSPESLLQLKALKPGVIQILGVKTSRFLCQRPDGALYGSLHFDPEACSFRERLLEDGYNVYQSEAHGLPLHCPGNKSPHRDPAPRGPCRFLPLPGLPPALPEPPGILAPQPPDVGSSDPLSMVGGSQGRSPSYES | 1.46 nM | 0.85 nM | 1.67 nM
C462 L9F2L9M10 (Fc fusion) HSQGTFTSDYSKYLDEEAAQDFVQWLMNGGPSSGAPPPSGGGGSGGGGSGGGGS[human IgG1 Fc with changes omitted here]GGGSGGGGSGGGGSDSSPLLQFGGQVRQRYLYTDDAQQTEAHLEIREDGTVGGAADQSPESLLQLKALKPGVIQILGVKTSRFLCQRPDGALYGSLHFDPEACSFRERLLEDGYNVYQSEAHGLPLHCPGNKSPHRDPAPRGPCRFLPLPGLPPALPEPPGILAPQPPDVGSSDPLAMVGGSQGRSPSYAS | 1.34 nM | 1.54 nM | 1.21 nM
